# Measurements as given in the supplement of paper PMC11417369.
# ± gives the standard deviation of the averaged measurements. The list shows a part of the results.
# Tested on: PfAP2-LT AP2 domain (GST-tagged)
# Assay: gcPBM binding intensity (ln(normalized median fluorescence intensity)); higher = stronger DNA binding
# Outline: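 An Agilent 4 × 180k array carrying primer-extended double-stranded 36-bp intergenic genomic probes and negative controls received GST-tagged P. falciparum DNA-binding domains expressed in E. coli, about 25 μg on average, for 1 h. The binding buffer contained 1× PBS, 1% milk, 0.2 mg/ml BSA, 0.5% salmon testes DNA and 0.03% Triton X-100. Binding intensity is the top Masliner-normalised natural-log median intensity across replicate spots of either probe orientation, read after Alexa488 anti-GST antibody staining and a 488 nm scan.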
row,Sequence,gcPBM binding intensity (ln)
1,AATGTAATATAAATATGTACATATAAACTATATATA [XGTACX_site6871],8.95 ± 0.41
2,ATTATATATATATATATATATATATATATATTATAT [CACACA_negctrl_site234],9.17 ± 0.27
3,ACTTATGATTTATTTTGTACATATATACTATTCCTG [XGTACX_site5275],9.14 ± 0.52
4,GTTTTAAAACAAATATGTACACATAATATAGGAAAG [XGTACX_site1803],8.96 ± 0.43
5,TCCGTATAATTTTGCACACGAATATAAATTTGATAA [CACACA_site136],8.86 ± 0.33
6,ATTATATCACTGTGTTGTACTTCTTATATAAAAATA [XGTACX_site2333],8.69 ± 0.45
7,ACATATCGGGTGCATTAACACACATTTATTTGAATA [CACACA_site8736],8.97 ± 0.48
8,ATATTACACAGATATGCACACATTGTAGTTATTTAT [CACACA_site5454],9.19 ± 0.38
9,AAAAAGGAAATTTACACACACATATAACATACATTA [CACACA_site7534],9.4 ± 0.35
10,ATAAAAATAAAATGGACACACATATATACATATTTG [CACACA_site3277],9.08 ± 0.44
11,AATTATAATAAATAACGTACAAAAAATAAATTATTT [XGTACX_site3627],8.73 ± 0.37
12,TATATATTCATGTGTACACACAAAAAAAAATAAAGT [CACACA_site2207],9.59 ± 0.37
13,ATAAGCGAATATATATCACACACAAAAAAATCAGAC [CACACA_site8657],9.56 ± 0.4
14,TTTTTTTTTGATATTTGTACTTAAGTAAATATTATA [XGTACX_site3843],8.46 ± 0.45
15,TATCTTTTATAAGTGACACACATAAATATTTAAATT [CACACA_site833],8.59 ± 0.43
16,ATATTAGGGTCATGAACACACAAAAAAAAAAAAAAA [CACACA_site937],8.93 ± 0.65
17,GCTATCATATCATGTTGTACACAACCTCAAAATGAA [XGTACX_site8757],8.74 ± 0.32
18,TCATATTTACAAAAAGGTATTAATAAATAAAATATT [CACACA_negctrl_site259],8.53 ± 0.42
19,AATAAGTGTTGATTCTTAAAATGACCATATAATAAT [TGCATGCA_negctrl_site221],8.73 ± 0.41
20,CGTTTATTAAACTTGACACACACACCCCCACATATA [CACACA_site8151],9.975 ± 0.064
21,TATATATATATATATGCATGCCATATGATATATATA [TGCATGCA_site109],9.71 ± 0.4
22,AATCGATAACAATGTAGTACCAGAAAAATAAATATT [XGTACX_site8501],8.98 ± 0.5
23,TTTAATTCTTATATTTGTACAGATTCATAATTAAAT [XGTACX_site7465],8.46 ± 0.4

row,Sequence,gcPBM binding intensity (ln)
1,TTAGTATATTTTTCCTGTACGTACTCAGATACAAAT [XGTACX_site7397],8.79 ± 0.45
2,TTAAATAATTTTTAATGTACATTAAATTTATTATTA [XGTACX_site261],8.38 ± 0.42
3,TACACATTATGTATCATACACACAAATAAATATATA [CACACA_site608],9.21 ± 0.31
4,AAAAAGAATATAAGTAGTACAGTGCATATAATAATT [XGTACX_site617],9.2 ± 0.49
5,TTTTACTCTTAAAATAATAAAAAATATTCACATTTA [CACACA_negctrl_site1508],8.06 ± 0.62
6,TATAATTTTTTTAATACACACAAATATTTATATATA [CACACA_site3042],8.46 ± 0.4
7,AATTAATGTTTTGTCACACAGTATGATTATATATAT [CACACA_site6143],8.89 ± 0.43
8,TATATATACATATACGCATGTAAATTCAAAAGTAAA [TGCATGCA_site956],8.79 ± 0.35
9,AAGAGAAATGGGCACACACACACATATTATATATAT [CACACA_site1531],9.95 ± 0.36
10,TTCTCCATCAGATACTGTACATAATATATATAATAT [XGTACX_site8827],8.86 ± 0.41
11,TGTATAACCTGTGTTACACACATTAGAATTTATATA [CACACA_site6393],8.83 ± 0.31
12,GCATCATTTATTTGCACACCTATTATATACTTTTTA [CACACA_site2098],9.12 ± 0.46
13,TATATAAAGATATATACACACAAAAAAAAAAAAAAA [CACACA_site6778],8.81 ± 0.57
14,TACATAAACTTTATAACACACACTTATATATATATA [CACACA_site1106],9.09 ± 0.28
15,AATAATAACAAATGAACACACATATATATGAGCAAA [CACACA_site2121],9.13 ± 0.41
16,TATAAAAATATATATATATATATATATATATATATA [TGCATGCA_negctrl_site541],9.65 ± 0.16
17,TTGATATAAAAAGAAAGTACTTTATAGATGTTTATT [XGTACX_site8144],8.65 ± 0.51
18,TTCTACGTTTTAAAAAAAAAAAAAAAAAAAAAAAAA [XGTACX_negctrl_site6],7.92 ± 0.38
19,ATACATATCTATAATACACACATAAATGTAACATTT [CACACA_site7621],9.1 ± 0.36
20,AATGTATTATGTAATAGTACGTATAATATCTTATTT [XGTACX_site3],8.77 ± 0.38
21,ATTATATATATTGGAGTGCATATATAGTATTTTATA,8.67 ± 0.38
22,ACATATTATAGGAATACACACAAAAACTTATCGGTA [CACACA_site7587],9.16 ± 0.4
23,ATAGAAATCTATTGTGATTATTATTTTATTTTTAGT [XGTACX_negctrl_site605],8.52 ± 0.45

row,Sequence,gcPBM binding intensity (ln)
1,TGAAGATAAAAATATGCACACATATATATATATATA [CACACA_site8027],9.85 ± 0.3
2,CATAAAAATGAACATACACACATATATTTATTTATA [CACACA_site7222],8.99 ± 0.47
3,AATATAATCTTTCAAAAGAAAAAGACTTCATGAAAA [CACACA_negctrl_site1331],8.45 ± 0.41
4,ATATACGCATTAATAACACACAATATGATAACAAAT [CACACA_site3623],9.18 ± 0.38
5,AAAATGTATGGAATGCTCTTTTTTAAGTATTATATA [GTGCAC_negctrl_site175],8.51 ± 0.42
6,TATTTTAATATTTGTAGTACAGATTGAAATGACGAA [XGTACX_site4805],8.51 ± 0.45
7,TTTATTTATTATTAAAGTACTAAAATATATTATTAT [XGTACX_site4887],8.28 ± 0.55
8,ATACGTATTTTCTTTTGTACATATATATAAAATATT [XGTACX_site2675],8.79 ± 0.34
9,TATATTTATTAGTTTCGTACGTACAAAGTTATTTTT [XGTACX_site8847],8.84 ± 0.42
10,AATATTGCACCATTTTGTACATAATATATTCAAATA [XGTACX_site475],8.75 ± 0.44
11,ACAAAATTGATATATGCACACATATATATATTAAAT [CACACA_site8152],9.1 ± 0.4
12,GTAGGTTTATATTGTAGTACATACAAACGTTAACAA [XGTACX_site5476],8.89 ± 0.31
13,TATTTTGTTCTTTCCACACACAAATACCTATCTTGT [CACACA_site7833],9.49 ± 0.4
14,GCTATTTATTTATATTGTACTTTTTTTTTTTTTTTT [XGTACX_site3624],8.78 ± 0.63
15,TTTTTTTTTTGATGTTGTACATATATATTATATAAT [XGTACX_site2765],8.69 ± 0.36
16,TTTTTTTTTGGGGGTGCATGCAAGACATATATTTAA [TGCATGCA_site228],9.07 ± 0.085
17,CATACATATATATATACACACATACATATATATACA [CACACA_site8165],9.2 ± 0.3
18,ATTCGTGAACTAGCCAAACACACGAAAAAAAAAAAA [CACACA_site3342],8.86 ± 0.45
19,TTTTATTGATTATTCATAAATATGCTATTCATCTAA [CACACA_negctrl_site1084],8.51 ± 0.49
20,ATGTAACATAGGAAATGTACATATAAATATAATTTA [XGTACX_site6452],8.93 ± 0.45
21,CACACAATGGCTAGCTGTACATAATATATATCTACA [XGTACX_site4691],8.88 ± 0.31
22,TAAAAACAAAAATGTTGTACATAATATAAAACAATT [XGTACX_site6380],8.74 ± 0.38
23,TATATAAATATACAAACACACATACAAACATATATA [CACACA_site4754],9.29 ± 0.34

row,Sequence,gcPBM binding intensity (ln)
1,GAAAATAAAATAAATGCATGTAAATTTAATGTAATG [TGCATGCA_site996],9.01 ± 0.52
2,AAAAAAAACGAACACACACACAAATATGTAAAAATA [CACACA_site6673],9.87 ± 0.28
3,TTAACAAATAGACACACACACACACGCAAAAAAAAA [CACACA_site6387],10.3 ± 0.33
4,ATATATATATTTACATGTACACATCTATATATAAAC [XGTACX_site5581],8.99 ± 0.35
5,TTTTTTTTTCATTATTGTACATTGAAACTTCATTTT [XGTACX_site6041],8.84 ± 0.5
6,AAAAAAAAAAAATGTGCATGCTATATATATATATAT [TGCATGCA_site727],9.75 ± 0.16
7,GAATATAAACATATTACACACATCTATCTGTACATT [CACACA_site5114],9.41 ± 0.2
8,TGGTATCAAAAGAATACACACACACCGACATATATA [CACACA_site9265],9.8 ± 0.34
9,TACATACATACATACACACACACATATAAATACATA [CACACA_site4626],10.1 ± 0.4
10,TCTCTAACTTTTAATACACACAAATAAATAAATAAA [CACACA_site6245],8.48 ± 0.53
11,GTTTTATTTATTTCATGTACACAAAAAAGGTTTTAA [XGTACX_site6525],8.53 ± 0.47
12,AAAATAAAATAATAAAATAAAATAATAATAAAATAA [TGCATGCA_negctrl_site401],8.66 ± 0.55
13,AATACATATATATATTGTACATATAGGGAAAAATTA [XGTACX_site2275],8.96 ± 0.49
14,GTGGGAAACATAAACACACACAAAAAGAAAAAATAG [CACACA_site4810],9.45 ± 0.54
15,ACTTATAAAATAACATGTACAAATATTTATTATATA [XGTACX_site133],8.66 ± 0.49
16,AATATTTTTTTATAAACACACATATATATAAATATA [CACACA_site3524],8.53 ± 0.4
17,TATATAAATATAATATGTACATATAATATGTATATA [XGTACX_site8120],8.77 ± 0.38
18,TAATAATTTATATATGCATGTCAAAATAATATTAAA [TGCATGCA_site12],8.37 ± 0.48
19,TATATATTTTTATGTGTGCACTGTTTCATAAAAGAA,8.84 ± 0.36
20,TATGGTAACATATGCTGTACAATATAATATGTTTAA [XGTACX_site1601],8.7 ± 0.45
